# The whole screen tested about 310,000 compounds, of which about 14,000 (4.5%) showed an effect of 50% or more. Effects have a minus sign here. The list shows a part of the results.
# Biological target: human ether-à-go-go-related gene (hERG) potassium channel (human, UniProt Q12809)
# Assay: primary screen, population patch clamp on CHO cells stably expressing hERG
# 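Further: peak tail current of the secondary pulse compared with the same well before compound.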
# Sequence of human ether-à-go-go-related gene (hERG) potassium channel (Q12809 whole entry, looked up): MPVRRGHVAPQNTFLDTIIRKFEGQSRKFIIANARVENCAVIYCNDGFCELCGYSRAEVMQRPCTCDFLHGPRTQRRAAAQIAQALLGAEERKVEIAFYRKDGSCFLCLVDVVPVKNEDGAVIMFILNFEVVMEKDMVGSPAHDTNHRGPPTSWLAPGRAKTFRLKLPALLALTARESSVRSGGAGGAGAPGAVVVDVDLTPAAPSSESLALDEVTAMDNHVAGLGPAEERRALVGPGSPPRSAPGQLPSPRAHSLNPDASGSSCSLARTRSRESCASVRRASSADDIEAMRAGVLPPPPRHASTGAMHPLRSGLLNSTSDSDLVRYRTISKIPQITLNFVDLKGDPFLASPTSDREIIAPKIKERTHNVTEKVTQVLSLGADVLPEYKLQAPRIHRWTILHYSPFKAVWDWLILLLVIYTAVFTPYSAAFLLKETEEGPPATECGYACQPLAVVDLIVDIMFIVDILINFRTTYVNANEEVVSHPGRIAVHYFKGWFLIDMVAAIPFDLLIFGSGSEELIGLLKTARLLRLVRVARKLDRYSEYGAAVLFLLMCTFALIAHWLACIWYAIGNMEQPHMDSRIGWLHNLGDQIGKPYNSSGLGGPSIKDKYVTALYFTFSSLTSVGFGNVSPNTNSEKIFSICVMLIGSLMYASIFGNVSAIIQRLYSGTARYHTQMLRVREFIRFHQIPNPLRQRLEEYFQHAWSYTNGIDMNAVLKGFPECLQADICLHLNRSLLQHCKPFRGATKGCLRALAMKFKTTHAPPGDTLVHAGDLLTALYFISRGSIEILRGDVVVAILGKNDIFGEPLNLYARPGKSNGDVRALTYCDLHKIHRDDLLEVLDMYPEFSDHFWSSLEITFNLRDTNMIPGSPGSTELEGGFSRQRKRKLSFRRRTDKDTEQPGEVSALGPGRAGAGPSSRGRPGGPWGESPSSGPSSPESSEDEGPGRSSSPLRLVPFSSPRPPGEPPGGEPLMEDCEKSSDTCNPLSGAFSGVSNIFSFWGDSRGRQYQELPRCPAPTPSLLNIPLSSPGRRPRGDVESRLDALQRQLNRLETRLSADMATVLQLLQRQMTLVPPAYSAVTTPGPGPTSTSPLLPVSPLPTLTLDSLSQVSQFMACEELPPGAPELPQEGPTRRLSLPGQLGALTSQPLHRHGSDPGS
row,SMILES,"hERG current change (%, negative = inhibition) at 10uM"
1,O=C(c1ccc(CSc2ccc(Cl)cc2)cc1)N1CCOCC1,-48.3%
2,Cc1cc2cc(CCNC(=O)C(=O)c3c[nH]c4ccccc34)c(=O)[nH]c2cc1C,1.09%
3,COc1cccc(/C=N/NC(=O)C(C)Cn2cnc3ccccc32)c1 (stereo not shown),-7.38%
4,COC(=O)c1ccc(NC(=O)CSc2nc3ccc(N4C(=O)C5C6C=CC(C6)C5C4=O)cc3s2)cc1 (stereo not shown),-2.9%
5,CCOC(=O)N/N=C\c1cccc(OC)c1OC/C=C/c1ccccc1,-10.8%
6,CCN1C(=O)C(CC(=O)Nc2cccc(C(C)=O)c2)S/C1=N\c1ccccn1 (stereo not shown),23.5%
7,Cn1c(SCc2cccc([N+](=O)[O-])c2)nc2c(c1=O)SCC2,-36.6%
8,CN=C(Nc1cc(C)nn1-c1ccccc1)c1ccc(F)cc1,-9.94%
9,COc1cc(OC)cc(-c2cc3nc(C)c(CCC(=O)NC(C)CCc4ccco4)c(C)n3n2)c1 (stereo not shown),-58.4%
10,COc1ccc(-n2ncc3c(=O)n(CC(=O)N4CCCc5ccccc54)cnc32)cc1,-14.8%
11,CCCCC/C(=N\NC(=O)CCC(=O)NCc1ccccc1)c1ccccc1,-0.38%
12,COc1ccc(N2C(=O)C3C(c4ccc(C(=O)O)cc4)NC(Cc4ccccc4)(C(=O)O)C3C2=O)c([N+](=O)[O-])c1 (stereo not shown),5.34%
13,O=C(NCc1ccccn1)c1cc2cc(Br)ccc2oc1=O,9.14%
14,Cn1c(Cn2c(C(F)(F)F)nc3ccccc32)nc2ccccc21,-13.8%
15,CN(c1ccc(C(=O)N2CCOCC2)cc1)S(=O)(=O)c1ccc(Cl)cc1,-34.2%
16,CC(C)CNC(=O)CC(=O)N/N=C/c1ccc(Br)cc1,7.16%
17,CCn1cc(C(=O)Nc2ccccc2)c(=O)c2ccc(C)nc21,25.4%
18,O=C(O)c1cc(NC(=O)c2ccc3c(c2)C(=O)N(Cc2ccccc2)C3=O)cc(C(=O)O)c1,7.78%
19,O=C(CSc1nnc2scc(-c3ccccc3)n12)NCC1CCCO1 (stereo not shown),-1.45%
20,O=C(Nc1nnc(C2CCCCC2)s1)C1CC(=O)N(c2ccc(F)cc2)C1 (stereo not shown),13.4%
21,CCOc1ccc(-n2c(SCC(N)=O)nnc2-c2cccnc2)cc1,-5.57%
22,Cc1cc(=O)[nH]c(SCC(=O)NCc2ccc3c(c2)OCO3)n1,22.3%

row,SMILES,"hERG current change (%, negative = inhibition) at 10uM"
1,COc1cc(S(=O)(=O)NC2CCCCC2)c(C)cc1C,4.88%
2,COc1ccc2c(c1)c(C(=O)O)c(C)n2-c1ccccc1,2.91%
3,O=C1c2ccccc2S(=O)(=O)N1Cc1c(F)cccc1Cl,-6.24%
4,O=C(Nc1ncnc2sc3c(c12)CCCCC3)c1ccc(F)cc1,10.7%
5,COc1ccc(C(=O)OCCN2CCOCC2)cc1.Cl,-4.71%
6,COc1ccc(-c2cc(C(F)(F)F)nc(N3CCCCCC3)n2)cc1,2.13%
7,O=c1[nH]c2ccsc2c(=O)n1-c1ccc(F)cc1,12.4%
8,CC(C)c1ccc(N(CC(=O)NCc2ccc(F)cc2)C(=O)c2csnn2)cc1,-32.5%
9,CCOc1ccc(/C=N/NC(=O)C(OC)c2ccccc2)cc1 (stereo not shown),-0.107%
10,Cc1ccc(-c2cc(C(=O)Nc3nccs3)c3ccccc3n2)o1,-0.32%
11,CCc1cc(=O)oc2cc(C)cc(OCC(=O)N3CCC(C(=O)NC(C)C)(c4ccccc4)CC3)c12,-43.6%
12,COc1ccc(-c2cn(CC3CCCCC3)nn2)cc1,15.3%
13,COCCNc1ccc([N+](=O)[O-])cc1C(=O)NC1CCCc2ccccc21 (stereo not shown),-40.8%
14,CC(C)(C)C(=O)/C=C/Nc1ccccc1O,4.35%
15,O=C(NC(=S)N1CCCCCC1)C1CC1,12.7%
16,O=C(CSc1ccccn1)N/N=C/c1ccccc1[N+](=O)[O-],-27.6%
17,CC(=O)N1CCN(S(=O)(=O)c2cccc(C(=O)NNC(=O)COc3ccc(F)cc3)c2)CC1,-1.69%
18,Cc1c(N=Cc2ccc(Cl)o2)c(=O)n(-c2ccccc2)n1C,-1.96%
19,CCOc1ccc(-c2n[nH]c(C)c2Oc2ccccc2OC)c(O)c1,14%
20,O=C(O)c1ccc(NS(=O)(=O)c2cccc(C(=O)Nc3ccc([N+](=O)[O-])cc3)c2)cc1,18.8%
21,COc1cccc(C(=O)c2c[nH]c(C(=O)NCCCN(C)C)c2)c1,-4.75%
22,O=C(CNCC1CCCCC1)Nc1cccc(S(=O)(=O)N2CCOCC2)c1,21.7%

row,SMILES,"hERG current change (%, negative = inhibition) at 10uM"
1,CCN(CC(=O)Nc1c(F)cccc1F)C(=O)c1ccc(S(=O)(=O)N2CCCCC2)cc1,-6.93%
2,COCCn1c(SCC(=O)Nc2cccc(C)n2)nnc1-c1ccco1,-11.5%
3,Cc1nnc2ccc(N3CCCC3)nn12,6.22%
4,COc1ccc(NC(=O)CSc2nc3scc(C)c3c(=O)[nH]2)cc1,14%
5,Cc1cccc(NC(=O)[C@@H]2CCCN2C(=O)OC(C)(C)C)c1C,14%
6,O=C(NC1CCCC1)c1ccccc1-c1ccccc1,12.1%
7,Cc1cc(OC(C)C(=O)Nc2cccnc2)ccc1Cl (stereo not shown),2.05%
8,CN(CC(=O)N1CCN(c2cccc(Cl)c2)CC1)S(=O)(=O)c1cccs1,-32.9%
9,Cc1cccc2c1N1C(=O)c3c(C(=O)O)cccc3C1CC2C (stereo not shown),-6.35%
10,COc1ccc(/C=N/NC2=NS(=O)(=O)c3ccccc32)cc1,12.8%
11,COc1ccc(/C(C)=N/NC(=O)CNC(=O)COc2ccccc2)c(OC)c1,16.1%
12,COc1ccccc1NC(=O)CN(C)S(=O)(=O)c1cc(C)ccc1OC,-12.9%
13,Cl.OCCNCc1cccc(OCc2ccc(Cl)cc2)c1,-12.9%
14,CCCC(C)C1(CC)C(=O)NC(=Nc2ccccc2)NC1=O (stereo not shown),2.53%
15,COc1ccc(OC)c(CN2CCN(C(=O)CNC(=O)c3cc(C)cc(C)c3)CC2)c1,-42.7%
16,Cc1ccc(S(=O)(=O)N(C)C)cc1NC(=S)N1CCCCC1CO (stereo not shown),11.6%
17,CCCN(C(=O)Cc1c(C(=O)O)n(C)c2ccccc12)c1cccc(C)c1,19.8%
18,Cc1ccc(NC(=O)CC(C)CC(=O)NCc2ccccc2)cc1Cl (stereo not shown),9.46%
19,Cc1csc(NC(=O)c2cc(=O)[nH]c3ccc(S(=O)(=O)N4CCOCC4)cc23)n1,25.1%
20,O=C(Nc1ccnn1C1CCN(C/C=C/c2ccccc2)CC1)c1ccccc1,-73.7%
21,CC1CCCN(C(=O)C2CCN(c3nc(-c4ccccc4)nc4c3CCC4)CC2)C1 (stereo not shown),-55.1%
22,CN(C(=O)C1CCC(=O)N(Cc2cccc(F)c2)C1)C1CCCCC1 (stereo not shown),-11.2%

row,SMILES,"hERG current change (%, negative = inhibition) at 10uM"
1,C=CCSc1nnc(NC(=O)c2ccc(NC(C)=O)cc2)s1,1.7%
2,CCCCCCCCCC(=O)N[C@H](CN1CCOCC1)[C@H](O)c1ccccc1.Cl,-16.6%
3,CC(NC(=O)c1ccc(Br)o1)C1CC2CCC1C2 (stereo not shown),-0.321%
4,Cc1ccnc(NC(=O)CCC(=O)N(CC(=O)NCCc2ccccc2)c2ccccc2F)c1,-10.6%
5,CSc1nnc(CNS(=O)(=O)c2ccc(F)cc2)n1C,19.7%
6,Cc1ccccc1N1CCN(CCCOc2ccc3c(C)cc(=O)oc3c2)CC1,-75.3%
7,Nc1nonc1-c1nc2ccccc2n1Cc1ccc(F)cc1,-9.25%
8,COc1ccc(N2CCN(C(=O)c3cccn4c(=O)c5ccccc5nc34)CC2)cc1,-60.1%
9,Cc1ccc(C)c(NCCC#N)c1,3.2%
10,COCCN1CC(=O)N(c2cccc(C)c2C)C(c2ccc(Cl)cc2)C1=O (stereo not shown),-14%
11,COc1ccc(-c2csc(Nc3ncccn3)n2)cc1C,16.8%
12,CCc1ccc(NC(=S)NCC2CCCN2CC)cc1 (stereo not shown),-32.2%
13,C=CCN1c2ccccc2[C@]23C[C@@H](C(=O)OC)N=C2NC(C(=O)OC)=C(C(=O)OC)[C@H]13,-18.6%
14,Cc1cccc(C)c1OC(=O)Cc1ccccc1,8.89%
15,O=C(CCc1nc2ccccc2c(=O)[nH]1)NCCN1C(=O)S/C(=C\c2ccc(Cl)cc2Cl)C1=O,0.73%
16,CCSC1=NCCN1S(=O)(=O)c1ccc(NC(C)=O)cc1,4.89%
17,COc1ccc(C(=O)N/N=C/c2ccc(N3CCOCC3)s2)cc1OC,11.6%
18,Cc1ccc(NC(=O)CN2CCC(C(=O)c3ccc4c(c3)OCCO4)CC2)cc1,-44.7%
19,Cc1nnc(SCC(=O)c2ccccc2)n1Cc1ccccc1,3.11%
20,O=C(/C=C/c1cccc([N+](=O)[O-])c1)NCc1cccnc1,-14%
21,CCCc1nc2c(sc3nc4c(cc32)COC(C)(C)C4)c(=O)n1Cc1ccco1,-27%
22,O=C1CC(c2ccccc2)=NN1c1nc(-c2ccccc2)cs1,6.5%

# Source: PMC4336329 (PLoS ONE, 2015)
